# According to PubChem BioAssay AID504466 (National Center for Advancing Translational Sciences (NCATS), 2011):
# The campaign covered roughly 330,000 compounds. About 4,200 (1.3%) were called active. The shares of active, inactive and inconclusive entries below differ from those in the screen. Calls follow the shape of the dose curve; as a rule, active = well fitted activation curve with a large enough effect; inconclusive = small, poorly fitted or top-dose-only effect; inactive = no such curve, though single readings can be large or run the other way. Potencies beside an inconclusive call are fits to weak or partial responses and may not hold up.
# Assay: qHTS screen for small molecules that induce genotoxicity in human embryonic kidney (HEK293T) cells expressing luciferase-tagged ELG1; also: nearly all actives have a fitted effect of over 60% in size
# Settings: HEK293T ELG1-luciferase reporter, luminescence, 16 h; series mostly up to 46 µM
# Summary of the method: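 Reporter readout depends on ELG1 protein level, which increases with genetic stress. After 16 hr compound exposure at 37 °C, luciferase activity was quantified using ONE-Glo.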
# Potency is read from the fitted curve at half-maximal effect; tags tell the direction and shape of the fitted curve.
row,Compound,Potency
1,Cc1ccc(C(=O)Nc2ccc(S(=O)(=O)NCc3ccco3)cc2)cc1,"inconclusive: 7.31 µM [activator, partial curve, poor fit]"
2,CC1(C)CC(NS(=O)(=O)c2cccc3ccccc23)CC(C)(C)N1,inactive
3,O=C(c1cc(N2CCOCC2)c(F)cc1[N+](=O)[O-])N1CCOCC1,inactive
4,CC(C)(C)c1ccc(NC(=O)c2ccsc2)cc1,"inconclusive: 1.3 µM [activator, full curve]"
5,Cc1cc2nc(-c3ccc(SCC(=O)Nc4ccc(S(=O)(=O)NC5CC5)cc4)nc3)[nH]c2cc1C,"inconclusive: 2.31 µM [activator, partial curve]"
6,O=C1NCCN/C1=C\C(=O)c1cccc(Br)c1,"inconclusive: 18.3 µM [activator, partial curve, poor fit]"
7,CN(C)S(=O)(=O)c1cccc(C(=O)N=C2N=C3C=CC(Cl)=CN3Cc3ccccc32)c1,"inconclusive: 8.2 µM [activator, partial curve]"
8,Cc1ccc(/C=N/NC(=O)c2csc3c2CCCC3)cc1,"inconclusive: 23.1 µM [activator, single point]"
9,CCN1CCN(c2ccc(NC(=O)c3ccco3)cc2)CC1,"inconclusive: 4.61 µM [activator, single point]"
10,CSc1nnc2ccc(-c3ccc(C)cc3)nn12,"inconclusive: 20.6 µM [activator, partial curve, poor fit]"
11,Cc1cccc(NC(=O)c2cccc(S(=O)(=O)NCc3ccccc3)c2)n1,inactive
12,Cc1cc(C(=O)CN2C(=O)C3CC=CCC3C2=O)c(C)n1-c1ccccc1 (stereo not drawn),"inconclusive: 0.58 µM [activator, full curve]"
13,O=C(N/N=C/c1ccc(O)c(O)c1)NC12CC3CC(CC(C3)C1)C2,inactive
14,COc1cc2c3nnc(-c4ccc(F)cc4)c-3cn(Cc3ccc(C)cc3)c2cc1OC,"inconclusive: 20.6 µM [activator, single point]"
15,c1ccc(Cn2nnc3c(N4CCOCC4)ncnc32)cc1,"inconclusive: 23.1 µM [activator, single point]"
16,COc1ccc(N2CC(C(=O)N[C@@H](C)C(=O)NC(C)c3ccccc3)CC2=O)cc1 (stereo partly drawn),inactive
17,CCC(=O)n1nc(-c2ccc(OC)cc2)nc1NCc1cccs1,"inconclusive: 14.6 µM [activator, partial curve]"
18,COc1ccccc1N(C)S(=O)(=O)c1ccc(C(=O)N(C)Cc2ccc(Cl)s2)cc1,inactive
19,Cc1ccccc1NC(=S)NCc1ccc2c(c1)cc(C)n2C,"inconclusive: 13 µM [activator, partial curve, poor fit]"
20,O=C1c2ccccc2NC(c2ccccn2)N1c1ccc(Cl)cc1 (stereo not drawn),"inconclusive: 18.4 µM [activator, partial curve, poor fit]"
21,COC(=O)c1ccc(NC(=O)Nc2ccc(F)cc2F)cc1,"inconclusive: 18.3 µM [activator, partial curve, poor fit]"
22,COc1ccc(C(=O)COC(=O)c2sccc2C)cc1OC,"inconclusive: 23.1 µM [activator, partial curve, poor fit]"
23,CCOc1ccc(-c2nc(CCl)cs2)cc1OC,"inconclusive: 25.9 µM [activator, partial curve, poor fit]"
24,COc1ccc(C(=O)N/N=C(\C)c2ccccn2)cc1OC,"inconclusive: 6.51 µM [activator, single point]"
25,COc1cccc(-c2nc3ccccc3s2)c1O,active: 1.46 µM

row,Compound,Potency
1,COc1ccc(-c2nc3nc(C)c(Cc4ccccc4)c(=O)n3[nH]2)cc1,"inconclusive: 14.1 µM [activator, single point]"
2,COc1ccc2nc(-c3ccccn3)[nH]c2c1,active: 5.17 µM
3,CN(C)/C=C/C(=O)c1ccc(Cl)cc1Cl,inactive
4,O=C1/C(=C/c2ccco2)CCc2ccccc21,active: 7.31 µM
5,CC1(C)CC(=O)C(N=Nc2ccc(F)cc2)=C(O)C1,"inconclusive: 23.1 µM [activator, partial curve, poor fit]"
6,CC(=O)c1ccc(N2CCN(C(=O)C3CCC3)CC2)cc1,"inconclusive: 20.6 µM [activator, partial curve, poor fit]"
7,COc1ccc2oc(-c3ccc(C)c(NC(=O)c4ccc(N5CCOCC5)c([N+](=O)[O-])c4)c3)nc2c1,"inconclusive: 20.6 µM [activator, single point]"
8,CC(/C=N/Nc1nc(C)cc(=O)[nH]1)=C\c1ccccc1,inactive
9,Cc1ccc(/C=N/NC(=O)NC2CCCCC2)o1,inactive
10,COc1ccc(C(=O)NC2CCCCC2)cc1OC1CCN(C(C)C)CC1,inactive
11,CC(=O)NCCOc1cccc2ccccc12,"inconclusive: 32.6 µM [activator, partial curve, poor fit]"
12,COc1cccc(NC(=S)NN=C2CCCCCC2)c1,"inconclusive: 6.51 µM [activator, partial curve]"
13,O=C(NCCc1ccc(Cl)cc1)c1ccc2c(c1)OCCO2,active: 2.31 µM
14,CCOC(=O)c1cc(C(=O)Nc2cccc(C)c2)nn1C,"inconclusive: 3.66 µM [activator, full curve]"
15,CC1Cn2c(nc3sc4c(c3c2=O)CC(C)(C)OC4)N1CCO (stereo not drawn),inactive
16,CC(C(=O)O/N=C(\N)c1ccccn1)c1ccc([N+](=O)[O-])cc1 (stereo not drawn),"inconclusive: 8.2 µM [activator, partial curve]"
17,COc1ccc(CN(C)S(=O)(=O)c2nnc(NC(=O)c3cccc(F)c3)s2)cc1,inactive
18,CCOc1ccc(NC(=O)CN(C)C(=O)c2n[nH]c(=O)c3ccccc23)cc1OCC,inactive
19,Cc1cc(C)n(Cc2ccc(C(=O)N/N=C/c3ccc(-c4ccc([N+](=O)[O-])cc4)o3)o2)n1,"inconclusive: 13 µM [activator, partial curve]"
20,Cn1nc(C(C)(C)C)c([N+](=O)[O-])c1C(=O)N1CCCCCC1,inactive
21,CCOC(=O)[C@H]1[C@H]2COc3cc(OC)ccc3[C@@H]2N2C(=O)N(c3ccc(Cl)cc3)C(=O)[C@@]12C,inactive
22,Cc1cnc(NC(=O)c2ccco2)s1,"inconclusive: 8.2 µM [activator, partial curve]"
23,Cc1c(NC(=O)c2ccc(Br)o2)cccc1C(=O)O,"inconclusive: 20.6 µM [activator, single point]"
24,Cc1cccc(OCCN2C(=O)C(=O)c3cc(C)ccc32)c1,"inconclusive: 20.6 µM [activator, single point]"
25,Cc1ccnc(SCC(=O)c2cccs2)n1,"inconclusive: 5.17 µM [activator, partial curve]"

row,Compound,Potency
1,CC(C)c1ccc(OCc2cccc(C(=O)N/N=C/c3cccnc3)c2)cc1,active: 0.461 µM
2,CN(c1ccc(C(=O)Nc2ccc3c(c2)n(C)c(=O)n3C)cc1)S(C)(=O)=O,"inconclusive: 20.6 µM [activator, partial curve, poor fit]"
3,COc1ccccc1/C=C\C(=O)NCC(=O)N/N=C/c1ccc(O)cc1O,"inconclusive: 29.1 µM [activator, single point]"
4,COc1ccc(CNC(=O)c2ccc3ccccc3n2)cc1,inactive
5,CCOc1ccc(Cc2noc3c2C(=O)CC(C)(C)C3)cc1OCC,"inconclusive: 0.58 µM [activator, full curve]"
6,COC(=O)c1ccc(-n2c(C)cc(C(=O)CCl)c2C)cc1,"inconclusive: 29.1 µM [activator, single point]"
7,Oc1ccc(/C=N/N2CCCCC2)c(O)c1,"inconclusive: 18.3 µM [activator, single point]"
8,Cc1ccc2nc(NCCc3ccccc3)c3nncn3c2c1,"inconclusive: 8.2 µM [activator, partial curve, poor fit]"
9,O=C(c1cnsn1)N1CCCC(Nc2ccc(F)c(F)c2)C1 (stereo not drawn),inactive
10,Cc1cc(C(=O)CSc2nnc(-c3ccccc3F)o2)c(C)n1Cc1cccs1,inactive
11,C=CCOc1ccc(C(=O)Nc2ncn[nH]2)cc1,"inconclusive: 29.1 µM [activator, partial curve, poor fit]"
12,CCOC(=O)c1c(Cc2ccccc2)c[nH]c1C,"inconclusive: 18.3 µM [activator, partial curve, poor fit]"
13,CN(c1ccc(OCC(=O)NCCc2ccccc2)cc1)S(=O)(=O)c1ccc(Cl)cc1,"inconclusive: 3.26 µM [activator, partial curve, poor fit]"
14,O=c1n(Cc2ccccc2Cl)nc2n1-c1ccccc1SC2,"inconclusive: 23.1 µM [activator, partial curve, poor fit]"
15,CC(C)(C)c1ccc(NC(=O)Nc2ccc(F)cc2)cc1,"inconclusive: 2.91 µM [activator, partial curve]"
16,CSc1ccccc1-c1nnc(-c2ccc(Cl)cc2Cl)o1,"inconclusive: 7.31 µM [activator, partial curve]"
17,Cc1csc(NC(=O)C2COc3ccccc3O2)n1 (stereo not drawn),active: 0.517 µM
18,COc1ccc2nc(SCc3ccccc3)nc(C)c2c1,active: 3.66 µM
19,Cc1ccc(C2C(C#N)=C(N)OC3=C2C(=O)CC(C)(C)C3)s1 (stereo not drawn),inactive
20,O=C(Nc1cccc(-c2ccc(N3CCOCC3)nn2)c1)c1ccc([N+](=O)[O-])cc1,"inconclusive: 2.91 µM [activator, partial curve]"
21,CCOc1cnn(-c2ccccc2)c(=O)c1Cl,"inconclusive: 23.1 µM [activator, partial curve, poor fit]"
22,COc1cc(NC(=S)NCCO)c(OC)cc1Cl,inactive
23,CC(C)c1cc(C(N)=O)c(NC(=O)c2cccc(COc3ccc(Br)cc3)c2)s1,"inconclusive: 2.82 µM [activator, partial curve, poor fit]"
